# Measured values taken from PMC4336329 (PLoS ONE, 2015).
# Among all 310,000 compounds or so, about 14,000 (4.5%) showed an effect of 50% or more. Effects have a minus sign here. This is one part of the list.
# Molecular target: human ether-à-go-go-related gene (hERG) potassium channel (human, UniProt Q12809)
# Experiment: primary screen, population patch clamp on CHO cells stably expressing hERG
# 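Note: peak tail current of the secondary pulse compared with the same well before compound.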
# Sequence of human ether-à-go-go-related gene (hERG) potassium channel (Q12809 whole entry, looked up): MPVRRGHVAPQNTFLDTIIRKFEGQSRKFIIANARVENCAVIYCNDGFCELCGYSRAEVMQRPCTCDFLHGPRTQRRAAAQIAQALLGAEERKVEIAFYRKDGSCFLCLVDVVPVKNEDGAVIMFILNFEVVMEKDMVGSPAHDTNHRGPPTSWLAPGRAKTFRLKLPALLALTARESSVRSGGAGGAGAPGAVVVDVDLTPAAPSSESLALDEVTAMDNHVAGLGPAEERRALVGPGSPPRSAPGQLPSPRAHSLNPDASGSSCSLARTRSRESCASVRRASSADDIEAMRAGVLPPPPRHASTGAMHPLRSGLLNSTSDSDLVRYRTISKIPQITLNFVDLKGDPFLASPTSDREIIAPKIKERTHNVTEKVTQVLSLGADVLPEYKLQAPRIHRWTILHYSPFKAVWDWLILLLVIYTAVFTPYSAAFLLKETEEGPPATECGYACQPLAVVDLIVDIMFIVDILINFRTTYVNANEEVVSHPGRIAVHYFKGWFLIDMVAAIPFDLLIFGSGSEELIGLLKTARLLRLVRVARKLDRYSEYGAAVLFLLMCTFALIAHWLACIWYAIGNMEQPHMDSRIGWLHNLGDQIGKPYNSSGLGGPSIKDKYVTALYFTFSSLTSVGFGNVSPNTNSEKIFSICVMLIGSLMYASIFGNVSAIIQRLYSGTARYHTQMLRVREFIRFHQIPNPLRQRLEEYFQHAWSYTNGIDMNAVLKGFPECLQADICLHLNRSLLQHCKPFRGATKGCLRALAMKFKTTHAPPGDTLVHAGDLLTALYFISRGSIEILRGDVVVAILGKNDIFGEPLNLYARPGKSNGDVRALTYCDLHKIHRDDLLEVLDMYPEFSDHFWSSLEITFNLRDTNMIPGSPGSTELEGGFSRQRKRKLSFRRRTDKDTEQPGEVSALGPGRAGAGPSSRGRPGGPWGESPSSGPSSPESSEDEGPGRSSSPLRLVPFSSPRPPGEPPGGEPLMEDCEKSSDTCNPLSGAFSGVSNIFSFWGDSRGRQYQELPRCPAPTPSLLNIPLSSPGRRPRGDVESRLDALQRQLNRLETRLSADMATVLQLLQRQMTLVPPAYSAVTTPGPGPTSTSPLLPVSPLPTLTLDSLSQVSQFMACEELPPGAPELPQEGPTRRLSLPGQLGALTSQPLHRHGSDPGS
row,Structure (SMILES),"hERG current change (%, negative = inhibition) at 10uM"
1,COc1ccc2cc(C3=CC(=O)C[C@H](c4ccc5c(c4)OCO5)C3)ccc2c1,17.3%
2,COc1cnc(NS(=O)(=O)c2ccc(N)cc2)nc1,16.1%
3,COc1ccc(-c2nc3ccc(C)cn3c2NCc2ccc3c(c2)OCO3)cc1,-34.1%
4,CCCCCN=CC1=C(O)CC(c2ccccc2)CC1=O (stereo not shown),-6.98%
5,Cc1nn(Cc2ccccc2Cl)c(Cl)c1C(=O)OCC(=O)NC(=O)NC1CCCCC1,10.4%
6,CCN(CC)C(=O)CSC1=N/C(=C/c2ccco2)C(=O)N1c1ccc(OC)c(Cl)c1,7.43%
7,Cc1ccc(-c2n[nH]c(=O)c3ccccc23)cc1S(=O)(=O)NCCN1CCOCC1,-9.11%
8,Cc1ccc(C(=O)c2c(NC(=O)c3cccnc3)sc3c2CCCC3)cc1,-11.3%
9,Cc1c(OCC(=O)NCCN2CCOCC2)ccc2c3c(c(=O)oc12)CCC3,-14.2%
10,CCOC(=O)c1[nH]c(C)c(C(=O)NCC2CCCO2)c1C (stereo not shown),6.52%
11,O=C(CSc1nnc(-c2ccncc2)o1)Nc1nncs1,15.5%
12,Cc1cccc(-n2nnnc2SCc2csc(-c3ccccc3)n2)c1,-18.8%
13,CCCOC(=O)CCCN1C(=O)/C(=C2\SC(=S)N(CCCC(=O)OCCC)C2=O)SC1=S,9.91%
14,CCC(CC)NC1CCCCC1OC (stereo not shown),17.4%
15,COc1cc2c(cc1NC(=O)CSc1nc3cc(Cl)ccc3s1)oc1ccccc12,8.33%
16,COc1ccc(-c2nn(-c3ccccc3C)cc2CNC(C)Cn2cncn2)cc1F (stereo not shown),-5.1%
17,Cc1cc(F)ccc1NCc1cccnc1,16%
18,CCOc1ncccc1C(=O)OCC(=O)Nc1ccc(C(C)C)cc1,14.2%
19,COC(=O)c1ccc(CS(=O)(=O)c2ccc(C)cc2)cc1,13.8%
20,COc1ccc(C2CC(c3ccccc3)=NN2c2ccc(Cl)c(C(=O)O)c2)cc1 (stereo not shown),17%

row,Structure (SMILES),"hERG current change (%, negative = inhibition) at 10uM"
1,CNC(=O)CSc1nnc(-c2ccc3c(c2)OCO3)n1C,15.7%
2,C=CCSc1nc2ccccc2n1S(=O)(=O)c1ccc(Cl)cc1,1.68%
3,CC(=O)c1ccc(OCC(O)CN2CCC(C)CC2)cc1.Cl (stereo not shown),-31.6%
4,Cc1ccc(S(=O)(=O)NC2(C(F)(F)F)NC(=O)N(c3ccc(F)cc3)C2=O)cc1 (stereo not shown),9.68%
5,CC1=NOC(=O)/C1=C/c1ccc(-c2ccc(Cl)cc2)o1,17.2%
6,O=C(c1cccnc1)C1Cc2ccccc2C1=O (stereo not shown),15.3%
7,CCN1C(=O)C(=C2C=C(C)N(Cc3ccco3)C(C)=C2)C(=O)N(CC)C1=S,-35%
8,COc1cccc(CC2(CO)CCCN(S(=O)(=O)N(C)C)C2)c1 (stereo not shown),42.4%
9,CCNC(=S)N1CCN(Cc2ccc3c(c2)OCO3)CC1,18%
10,Cc1ccc(SCc2cc(=O)n3[nH]cnc3n2)cc1,-0.82%
11,CCSc1nc2ccc(OC)cc2cc1C#N,-2.53%
12,CCOC(=O)C1=C(C)NC(SC)=NC1c1ccc(OC)cc1.I (stereo not shown),-4.06%
13,CC1CCN(c2ncnc3nc[nH]c23)CC1,-7.2%
14,Cc1ccc(S(=O)(=O)c2c(N)n(CCCN(C)C)c3nc4ccccc4nc23)cc1,-59%
15,Cn1c(=O)c2c(nc(Sc3ncccn3)n2Cc2ccccc2Cl)n(C)c1=O,-8.1%
16,Cc1ccsc1/C=C(\CC(=O)O)c1nc2ccccc2o1,13.1%
17,Cc1cc(C)nc(-n2nc(C)cc2NC(=O)c2ccc(F)cc2F)n1,-0.0513%
18,Cc1ccc(OCCC(=O)N2CCN(c3ccc(O)cc3)CC2)cc1,-34.7%
19,CCOC(=O)CSc1nc(-c2ccccc2)nc2ccc(C)cc12,13.4%
20,COc1ccc(N2C(=O)C(CC(=O)Nc3ccccc3)N(Cc3ccc(OC)c(OC)c3)C2=O)cc1 (stereo not shown),16.7%

row,Structure (SMILES),"hERG current change (%, negative = inhibition) at 10uM"
1,CC(C)Cn1c2c(c(=O)[nH]c1=O)C(C(F)(F)F)(C(F)(F)F)N=C(CCC1CCCCC1)N2,3.98%
2,CC(C)C[C@H](NC(=O)C1CC(=O)N(c2ccc3c(c2)OCCO3)C1)C(=O)NC1CCCC1 (stereo partly shown),26.7%
3,Cc1cc(OCC(=O)Nc2ccc(F)c(F)c2)nc(C(C)C)n1,15.3%
4,CC(C)(C)SCCNS(=O)(=O)c1ccccc1,6.08%
5,O=C1CSC(=S)N1/N=C/c1ccc(Cl)c([N+](=O)[O-])c1,7.66%
6,CC(=O)Nc1ccc(C(=O)Nc2ccc(S(=O)(=O)N3CCCCC3)cc2)cc1,2.24%
7,Cl.Cn1cnc([N+](=O)[O-])c1SCC(=O)NN,15.3%
8,CC(=O)c1cn(CC(=O)NCc2cccnc2)c2ccccc12,3.67%
9,Cc1sc2ncnc(SC(C)C#N)c2c1C (stereo not shown),19.6%
10,Cc1cccc2sc(N(CCCN(C)C)C(=O)c3ccc(C(=O)c4ccccc4)cc3)nc12,-53.2%
11,CNC(=O)c1ccccc1NC(=O)c1ccco1,6.37%
12,COc1cccc2c1Oc1ncccc1N(C(=O)CCC(=O)NCc1cccc(C)c1)C2,-23.5%
13,Cc1ccc(Cn2cc(C(=O)NN)c(=O)c3ccc(F)cc32)cc1,-51.6%
14,C=CCNS(=O)(=O)c1ccc2nsnc2c1,5.06%
15,CCOC(=O)N1CCN(C2CC(=O)N(c3ccc(Cl)c(Cl)c3)C2=O)CC1 (stereo not shown),-9.59%
16,NC(=S)N=Nc1c(O)[nH]c2c(Br)cc(Br)cc12,13%
17,O=C(O)CCn1c2c(c3ccccc31)CCCC2,25.3%
18,Cc1nn(C)cc1C1C2=C(CC(C)(C)CC2=O)N(c2ccccc2)C2=C1C(=O)CC(C)(C)C2,-6.46%
